The text below walks through data of the RNAGym collection of RNA variant scans (doi:10.1073/pnas.2313332121).

Variants at the floor of the assay are shown more often than the library holds them. Bounds are passed on as bounds.

The chains are these.
B1: TPR 5TU (parent)
chain: GGAUCUUCUCGAUCUAACAAAAAAGACAAAUCUGCCACAAAGCUUGAGAGCAUCUUCGGAUGCAGAGGCGGCAGCCUUCGGUGGCGCGAUAGCGCCAACGUUCUCAACUAUGACACGCAAAACGCGUGCUCCGUUGAAUGGAGUUUAUCAUG

In this data set the parent is B1. In words: polymerase ribozyme fitness, log enrichment relative to wild type (log ratio); higher = more active; in vitro selection for triplet polymerase activity. In outline:
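Each subunit of a heterodimeric triplet polymerase ribozyme was mutagenized into a library by PCR, transcribed, and subjected to one round of in vitro selection, run in triplicate. Libraries were annealed with a biotinylated primer, the partner subunit and triplets, incubated frozen at −7 °C, and extended constructs were gel-excised, captured on streptavidin beads and recovered by RT-PCR. Input and output libraries were sequenced on Illumina, keeping genotypes with ≥10 input reads and ≥1 read per output. Fitness is log base 2 of genotype enrichment divided by wild-type enrichment, from inverse-variance-weighted replicate averages.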
In the case of A21U C96G, the “polymerase ribozyme fitness (log ratio)” value is -0.697.

For the variant A21U A52U U53A U55A G71C C79U C95G C103G C125A C149U, the “polymerase ribozyme fitness (log ratio)” value was not above -4.2.

For A23G U33G G141U U148C, the “polymerase ribozyme fitness (log ratio)” value is not above -4.2.

Regarding A21U C87U G92A U151C, the “polymerase ribozyme fitness (log ratio)” value was not above -4.2.

A22U G88U C116A A119U: the “polymerase ribozyme fitness (log ratio)” value was -4.1.

With A22G U78A C85U A97C U111C C123A, the “polymerase ribozyme fitness (log ratio)” value is not above -4.2.

Consider A22C G50C U55A C85A C116A U127G, for which the “polymerase ribozyme fitness (log ratio)” value was not above -4.2.

Take A23C C114G: the “polymerase ribozyme fitness (log ratio)” value was not above -4.2.

A22U A26C G62C C87A C116G A147U: the “polymerase ribozyme fitness (log ratio)” value is not above -4.2.

Regarding A22C A23U G25A, the “polymerase ribozyme fitness (log ratio)” value was not above -4.2.

As for A23G G65U A120C G140A U144A, the “polymerase ribozyme fitness (log ratio)” value is not above -4.2.

As to A23G C51U G80U C105G, the “polymerase ribozyme fitness (log ratio)” value is not above -4.2.

As to A23G C51U G65C G88C U111A C131G C149G, the “polymerase ribozyme fitness (log ratio)” value is not above -4.2.

For the variant A22U C38U G58C A66G C75U A97G G136C, the “polymerase ribozyme fitness (log ratio)” value was not above -4.2.

With A22G U44A G50U G83U A89G G94C G136C U139G, the “polymerase ribozyme fitness (log ratio)” value is not above -4.2.

Consider A23C U90A, for which the “polymerase ribozyme fitness (log ratio)” value is not above -4.2.

For the variant A21U A39U C76A A91U C103A, the “polymerase ribozyme fitness (log ratio)” value is not above -4.2.

Consider A22C G34U G50A C54U C93U C105G G112C, for which the “polymerase ribozyme fitness (log ratio)” value is not above -4.2.

For A23C A30U C54U G81A A91G G126C, the “polymerase ribozyme fitness (log ratio)” value is not above -4.2.

In the case of A22U A28U U33G G58U G81A A107G G126U A137C A142G, the “polymerase ribozyme fitness (log ratio)” value was not above -4.2.

In the case of A22C C27G G42A G58U G83C, the “polymerase ribozyme fitness (log ratio)” value is not above -4.2.

In the case of A21U A73C C87A, the “polymerase ribozyme fitness (log ratio)” value was not above -4.2.

On to A22G G46C C54G U55G U56G G58C U77G G86C G124C, for which the “polymerase ribozyme fitness (log ratio)” value was not above -4.2.

As to A22G A26G U55A C85A, the “polymerase ribozyme fitness (log ratio)” value was not above -4.2.

For A22U G25A A41C A91G G94C, the “polymerase ribozyme fitness (log ratio)” value is not above -4.2.

As to A22G C36U G84C A106G U127G, the “polymerase ribozyme fitness (log ratio)” value was not above -4.2.

For the variant A22G G48A U53G C54G A60U C85G C129G, the “polymerase ribozyme fitness (log ratio)” value was not above -4.2.

Consider A22U A49G C54U C85U, for which the “polymerase ribozyme fitness (log ratio)” value was -0.721.

On to A22U A28U G58C U61G G84A U134A, for which the “polymerase ribozyme fitness (log ratio)” value was not above -4.2.

In the case of A21U A26C G141A, the “polymerase ribozyme fitness (log ratio)” value is -3.34.

Take A22U C63G U82G C87A: the “polymerase ribozyme fitness (log ratio)” value is not above -4.2.

On to A22C C85U A119U A120U G140U, for which the “polymerase ribozyme fitness (log ratio)” value was not above -4.2.

For the variant A22C U44G G94A, the “polymerase ribozyme fitness (log ratio)” value is not above -4.2.

A23C G42U A47G C95U C108U C125U: the “polymerase ribozyme fitness (log ratio)” value is not above -4.2.

A23G C38U U56A C63U U77G C103A U135C: the “polymerase ribozyme fitness (log ratio)” value is not above -4.2.

Take A22C A28G C36A U55A C87A C118G: the “polymerase ribozyme fitness (log ratio)” value was not above -4.2.

Turning to A21U A29U G50A U56A G92C U151G, the “polymerase ribozyme fitness (log ratio)” value was not above -4.2.

A22C G84U C99A U127A: the “polymerase ribozyme fitness (log ratio)” value was not above -4.2.

As to A22C A115C C129G, the “polymerase ribozyme fitness (log ratio)” value was not above -4.2.

For the variant A21U U56A A66G G68A G84A G86U C103A, the “polymerase ribozyme fitness (log ratio)” value was not above -4.2.

Take A22U A97G A122G: the “polymerase ribozyme fitness (log ratio)” value worked out at 0.332.

As for A23C C27G U56A G58U, the “polymerase ribozyme fitness (log ratio)” value was not above -4.2.

Consider A21U C57A U77C C95U C96A C103G C108G, for which the “polymerase ribozyme fitness (log ratio)” value was not above -4.2.

In the case of A22U G58A G74A U90A, the “polymerase ribozyme fitness (log ratio)” value is not above -4.2.

In the case of A22G G50U C51U G92A U151C, the “polymerase ribozyme fitness (log ratio)” value was not above -4.2.

As to A22U C43A C51A G84A A107U A119U, the “polymerase ribozyme fitness (log ratio)” value is not above -4.2.

As for A22U A41C G42A A60G A98G C125G, the “polymerase ribozyme fitness (log ratio)” value is not above -4.2.

In the case of A23G A24C G50U A66C A91U A121U G126A, the “polymerase ribozyme fitness (log ratio)” value is not above -4.2.

Take A21U U45A C51U G68U C76A C85U U127A: the “polymerase ribozyme fitness (log ratio)” value was not above -4.2.

Turning to A23C A37G U53A A66G G88U U130A U146A, the “polymerase ribozyme fitness (log ratio)” value was not above -4.2.

With A22C A30G G86A U102G A122U, the “polymerase ribozyme fitness (log ratio)” value is not above -4.2.

As for A23C A29G U82A A91C C93U, the “polymerase ribozyme fitness (log ratio)” value was not above -4.2.

For A22U A28U U45G G50U C103G, the “polymerase ribozyme fitness (log ratio)” value is not above -4.2.

On to A22G A91U A97G G126A, for which the “polymerase ribozyme fitness (log ratio)” value is not above -4.2.

Take A22C C27A U56A C85U C93A C99G A138U: the “polymerase ribozyme fitness (log ratio)” value was not above -4.2.

Regarding A23G U55C G80U C93G C105U C123G G143U, the “polymerase ribozyme fitness (log ratio)” value was not above -4.2.

For the variant A21U C32A C36A G42A G50U C63A G70A G94U C99G C118G, the “polymerase ribozyme fitness (log ratio)” value is not above -4.2.

Consider A23G A40G G42C, for which the “polymerase ribozyme fitness (log ratio)” value is not above -4.2.

On to A22U C32G G62A G86U C87U C108U G126U, for which the “polymerase ribozyme fitness (log ratio)” value is not above -4.2.

As for A22U C36A C57A C96U G124A C129U, the “polymerase ribozyme fitness (log ratio)” value is not above -4.2.

A22U A39U C93G: the “polymerase ribozyme fitness (log ratio)” value was not above -4.2.

On to A23U A26U C27U A41U C93U C95A, for which the “polymerase ribozyme fitness (log ratio)” value is not above -4.2.

As for A22U A24U G25U U44A C54A C93G C96U C116U G141C, the “polymerase ribozyme fitness (log ratio)” value is not above -4.2.

Regarding A22G A37C C76G C85U U146G, the “polymerase ribozyme fitness (log ratio)” value was not above -4.2.

As for A23C A41C C75A G84A A115U G152A, the “polymerase ribozyme fitness (log ratio)” value is not above -4.2.

As for A21U A37C U53A C96A G140C, the “polymerase ribozyme fitness (log ratio)” value was not above -4.2.

As to A23G G34U C36U A89U C99A, the “polymerase ribozyme fitness (log ratio)” value was not above -4.2.

Regarding A22C C27A G42A U44A C85G, the “polymerase ribozyme fitness (log ratio)” value was not above -4.2.

Turning to A22C A52C G94C G136U, the “polymerase ribozyme fitness (log ratio)” value was not above -4.2.

With A21U U33G A49C G50C C54A U82G G92U, the “polymerase ribozyme fitness (log ratio)” value was not above -4.2.

Regarding A23U A41U A73U U82C C93U A107C, the “polymerase ribozyme fitness (log ratio)” value was not above -4.2.

On to A23C A29U A41U G50A C95A G126A U145A U151G, for which the “polymerase ribozyme fitness (log ratio)” value was not above -4.2.

Turning to A21U A29U C63U A73G C76A U135C, the “polymerase ribozyme fitness (log ratio)” value was not above -4.2.

As for A22G A30C A39C G86A G141U, the “polymerase ribozyme fitness (log ratio)” value was not above -4.2.

On to A22U G70C C129A U135G, for which the “polymerase ribozyme fitness (log ratio)” value was not above -4.2.

A22U A40G G84A A119G: the “polymerase ribozyme fitness (log ratio)” value was -2.75.

Take A21U U33G A122U U144G: the “polymerase ribozyme fitness (log ratio)” value is -3.94.

In the case of A23U A24G C35A A106G G140U, the “polymerase ribozyme fitness (log ratio)” value is not above -4.2.

For A22U A37G A52G A64G G124A C129A, the “polymerase ribozyme fitness (log ratio)” value was not above -4.2.

For A21U A52C U61A C63A A64U A66C C72U G81A G84A, the “polymerase ribozyme fitness (log ratio)” value was not above -4.2.

Turning to A22U A30G G46C G50C A52C U55G G83A G94A, the “polymerase ribozyme fitness (log ratio)” value was not above -4.2.

As for A22C A40G U55G G88U C96A, the “polymerase ribozyme fitness (log ratio)” value is not above -4.2.

On to A23C C87G, for which the “polymerase ribozyme fitness (log ratio)” value is not above -4.2.
